Measured values as given in the supplement of paper PMC12217912.
This is one part of the list. Sequences were assembled here from the parent chain. Inactive controls read about 0.05.

B1: TEV protease; numbered along this chain (parent)
chain: MGESLFKGPRDYNPISSSICHLTNESDGHTTSLYGIGFGPFIITNKHLFRRNNGTLVVQSLHGVFKVKDTTTLQQHLVDGRDMIIIRMPKDFPPFPQKLKFREPQREERICLVTTNFQTKSMSSMVSDTSCTFPSGDGIFWKHWIQTKDGQCGSPLVSTRDGFIVGIHSASNFTNTNNYFTSVPKNFMELLTNQEAQQWVSGWRLNADSVLWGGHKVFMVKPEEPFQPVKEATQL

Variants of: B1
Test: raw area under fraction-flipped curve 0-4 h after induction (AUC4h, not background-subtracted), DNA-recorder readout of cleavage of the substrate (dimensionless); higher = more cleavage of the substrate by the protease variant
Conditions: temperature: 34 °C; time window: 0-4 h after rhamnose induction
Method: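 In vivo DNA recorder in E. coli TOP10(DE3) ΔrhaA at 34 °C. Each TEVp single-site mutant (parent TEVp 0) is paired with a single-site variant of the 7-mer TEVs (canonical ENLYFQ|S). The substrate sits between flexible linkers in a Bxb1-sfGFP-TEVs-SsrA fusion, so cleavage stabilises Bxb1 and speeds flipping of a recombination array, read by NGS. The value is the raw area under the fraction-flipped curve over 0-4 h after rhamnose induction (AUC4h), with ≥20 reads per time point. It is not background-subtracted; inactive controls average about 0.047.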
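Note: Bxb1 expression induced with 0.2% (w/v) L-rhamnose at OD600 near 0.5, cultures sampled hourly, flipped fraction per protease–substrate barcode pair counted by paired-end Illumina sequencing.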

Variant | area with substrate EALYFQS | area with substrate ECLYFQS | area with substrate EDLYFQS | area with substrate EELYFQS | area with substrate EFLYFQS | area with substrate EGLYFQS | area with substrate EHLYFQS | area with substrate EILYFQS | area with substrate EKLYFQS | area with substrate ELLYFQS | area with substrate EMLYFQS | area with substrate EQLYFQS | area with substrate ERLYFQS | area with substrate ESLYFQS | area with substrate ETLYFQS | area with substrate EVLYFQS | area with substrate EWLYFQS | area with substrate EPLYFQS | area with substrate EYLYFQS
R106D | 0.12 | 0.112 | 0.11 | 0.099 | 0.1 | 0.0865 | 0.109 | 0.105 | 0.116 | 0.102 | 0.107 | 0.088 | 0.111 | 0.101 | 0.128 | 0.0939 | 0.0935 |  | 
T44A | 0.0944 | 0.0902 | 0.104 | 0.0897 | 0.0673 | 0.0908 |  | 0.0809 | 0.0928 |  | 0.101 | 0.0897 | 0.0865 | 0.0714 |  | 0.0822 | 0.089 | 0.148 | 
Q198K | 0.129 | 0.114 | 0.118 | 0.109 | 0.0985 | 0.095 | 0.117 | 0.103 | 0.118 | 0.115 | 0.123 | 0.0969 | 0.093 | 0.111 | 0.128 | 0.102 | 0.124 |  | 0.0961
S16M | 0.109 | 0.102 | 0.114 | 0.143 |  |  | 0.11 | 0.0918 | 0.131 | 0.0777 | 0.136 | 0.136 |  | 0.114 | 0.0966 | 0.111 | 0.0851 | 0.107 | 0.108
S16H | 0.116 | 0.088 | 0.123 | 0.119 | 0.0972 | 0.0883 | 0.0986 | 0.0953 | 0.132 | 0.0846 | 0.111 | 0.138 | 0.086 | 0.102 | 0.126 | 0.0981 | 0.0858 | 0.126 | 0.101
D208V | 0.0745 | 0.0776 |  | 0.083 |  | 0.0596 | 0.0737 | 0.0771 | 0.0643 | 0.0706 | 0.0869 |  | 0.08 | 0.0684 | 0.0566 | 0.0759 | 0.0567 |  | 0.0586
D208Q | 0.108 | 0.0828 | 0.0989 |  |  |  | 0.0974 |  | 0.0997 | 0.0618 | 0.078 | 0.0788 | 0.074 | 0.0651 |  | 0.0701 | 0.0682 | 0.0794 | 
G150W | 0.053 | 0.0546 | 0.0666 | 0.0665 | 0.0618 | 0.0453 | 0.0565 | 0.0554 | 0.0575 | 0.0494 | 0.0652 | 0.0571 | 0.0703 | 0.0688 | 0.0451 | 0.0653 | 0.054 | 0.0652 | 0.0685
L48S | 0.0666 | 0.062 | 0.0857 | 0.0683 | 0.0654 | 0.0748 |  | 0.0583 | 0.0558 | 0.0676 | 0.0925 | 0.0667 | 0.0664 | 0.0572 | 0.0799 | 0.0541 | 0.061 |  | 
L48C | 0.0951 | 0.0822 | 0.135 | 0.0821 | 0.0777 |  |  | 0.0584 | 0.0461 | 0.0779 |  | 0.0861 | 0.0678 | 0.0577 | 0.0899 | 0.072 | 0.0888 |  | 0.0635
L48F | 0.119 | 0.0876 |  | 0.115 |  |  | 0.131 |  | 0.111 | 0.098 | 0.128 | 0.116 |  | 0.107 |  | 0.11 | 0.0912 |  | 0.113
R81T | 0.0715 | 0.0693 | 0.0859 | 0.0837 | 0.086 |  | 0.0845 | 0.0654 | 0.0728 | 0.0643 |  | 0.0732 | 0.0822 | 0.0745 | 0.0629 | 0.0736 | 0.0917 | 0.0753 | 0.0619
R81N | 0.0747 | 0.0781 | 0.126 | 0.143 | 0.0892 | 0.068 |  | 0.0597 |  | 0.0583 | 0.0744 | 0.0929 | 0.0687 | 0.0706 | 0.0745 |  |  | 0.104 | 0.0445
V165E | 0.0493 | 0.058 | 0.0582 | 0.0352 | 0.0271 | 0.0451 | 0.0497 |  | 0.0446 | 0.0506 | 0.054 | 0.0549 | 0.055 | 0.0655 |  | 0.0547 | 0.0551 | 0.0521 | 
F140R | 0.0577 | 0.0609 | 0.0492 | 0.0558 | 0.0504 | 0.0661 | 0.0961 | 0.0736 | 0.0586 | 0.0713 | 0.0532 | 0.0563 | 0.0567 | 0.0629 | 0.0606 | 0.065 | 0.0278 | 0.0593 | 
S32L | 0.0797 | 0.0972 |  | 0.115 | 0.0845 |  | 0.0719 | 0.0919 | 0.0933 |  | 0.112 | 0.119 | 0.107 | 0.114 | 0.11 | 0.0974 | 0.0911 | 0.13 | 
S32Q | 0.124 | 0.132 | 0.135 | 0.119 |  |  |  |  | 0.108 | 0.0802 | 0.121 | 0.11 | 0.117 |  |  | 0.114 |  | 0.141 | 
K216Q | 0.124 | 0.0781 |  |  |  |  | 0.148 |  | 0.126 |  |  | 0.0923 |  | 0.115 |  | 0.125 | 0.0903 |  | 
P184N | 0.0728 | 0.0728 | 0.0921 |  | 0.0753 |  | 0.0556 | 0.0668 |  |  |  | 0.0877 | 0.0851 | 0.0792 | 0.0771 | 0.0789 | 0.077 | 0.082 | 
P184G | 0.1 | 0.086 | 0.11 |  |  | 0.0743 | 0.0797 | 0.0665 |  | 0.0759 | 0.0808 |  | 0.152 | 0.0948 |  | 0.0923 | 0.0555 |  | 0.0654
P184C | 0.122 | 0.0972 | 0.104 |  | 0.0776 |  |  | 0.0833 | 0.137 |  |  |  |  | 0.175 | 0.099 | 0.0768 |  | 0.0923 | 
H168E | 0.0663 | 0.0611 |  | 0.0582 |  | 0.0514 |  | 0.0601 | 0.0679 | 0.0854 |  | 0.0577 |  | 0.0477 | 0.0597 | 0.0559 | 0.0933 | 0.0552 | 
H168D | 0.0585 | 0.0576 | 0.0614 | 0.0528 | 0.0649 |  | 0.0594 | 0.0532 | 0.0607 |  | 0.0511 | 0.0507 | 0.0589 | 0.0578 | 0.0462 | 0.0609 | 0.0544 | 0.0592 | 0.0578
K120P | 0.13 | 0.112 |  | 0.112 |  | 0.0693 |  |  | 0.119 | 0.098 |  |  | 0.0979 | 0.0891 | 0.0995 | 0.0853 | 0.0839 | 0.176 | 
